# Laboratory results taken from the supplement of paper PMC4604168 (melanoma cell lines).
# The other results are listed elsewhere or left out. Single values are uncertain, as repeats are few or missing.
# Assays:
# Assay in all cases: cell count relative to DMSO control; melanoma cells; higher = more viable cells
# Details in all cases: library dose: standard library concentration; 72 h
# SkMel28 = test system: SkMel28
# SkMel2 = test system: SkMel2
# SkMel30 = test system: SkMel30
# SkMel5 = test system: SkMel5
# UACC257 = test system: UACC257
# UACC62 = test system: UACC62
# WM115 = test system: WM115
# WM1716 = test system: WM1716
# WM1745 = test system: WM1745
# WM3526 = test system: WM3526
# 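Also: cells treated in 1,536-well plates, then fixed and DAPI-stained, with nuclei counted from automated high-throughput microscope images.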
SMILES,cell count (SkMel28),cell count (SkMel2),cell count (SkMel30),cell count (SkMel5),cell count (UACC257),cell count (UACC62),cell count (WM115),cell count (WM1716),cell count (WM1745),cell count (WM3526)
"COc1cc([C@@H]2c3cc4c(cc3[C@@H](O[C@@H]3O[C@@H]5CO[C@@H](C)O[C@H]5[C@H](O)[C@H]3O)[C@H]3COC(=O)[C@H]23)OCO4)cc(OC)c1O [etoposide] + C=CCNC1=C2C[C@@H](C)C[C@H](OC)[C@H](O)[C@@H](C)/C=C(\C)[C@H](OC(N)=O)[C@@H](OC)/C=C\C=C(/C)C(=O)NC(=CC1=O)C2=O [Tanespimycin] (first compound 0.1 µM, partner dose 0.01 µM)",58.9%,84.3%,96.2%,61.1%,92.5%,42.9%,29.3%,50.6%,52.4%,76.2%
"Cn1cnc2c(F)c(Nc3ccc(Br)cc3Cl)c(C(=O)NOCCO)cc21 [selumetinib] + Nc1nc(F)nc2c1ncn2[C@@H]1O[C@H](CO)[C@@H](O)[C@@H]1O [fludarabine] (first compound 0.075 µM, partner dose 1 µM)",0.323%,0.68%,11%,33.5%,25.4%,49.2%,92%,94.6%,72.4%,21.8%
"COc1cc([C@@H]2c3cc4c(cc3[C@@H](O[C@@H]3O[C@@H]5CO[C@@H](C)O[C@H]5[C@H](O)[C@H]3O)[C@H]3COC(=O)[C@H]23)OCO4)cc(OC)c1O [etoposide] + Cn1nnc2c(C(N)=O)ncn2c1=O [temozolomide] (first compound 0.1 µM, partner dose 10 µM)",57.1%,69.1%,71.6%,102%,97.8%,60.3%,90%,60.3%,77.9%,92%
"CCN(CC)CCNC(=O)c1c(C)[nH]c(/C=C2\C(=O)Nc3ccc(F)cc32)c1C [sunitinib] + COc1cc(Nc2ncc(F)c(Nc3ccc4c(n3)NC(=O)C(C)(C)O4)n2)cc(OC)c1OC [Tamatinib] (first compound 2 µM, partner dose 2 µM)",51.1%,72.3%,80%,50.6%,83.5%,69%,62.7%,60.6%,37%,50.7%
"Cn1cnc2c(F)c(Nc3ccc(Br)cc3Cl)c(C(=O)NOCCO)cc21 [selumetinib] + CC(C)C[C@H](NC(=O)[C@H](Cc1ccccc1)NC(=O)c1cnccn1)B(O)O [Bortezomib] (first compound 0.075 µM, partner dose 0.005 µM)",27.5%,29.6%,23.2%,26.5%,78.2%,41.1%,37.4%,14.7%,23.1%,23.4%
"CCN(CC)CCNC(=O)c1c(C)[nH]c(/C=C2\C(=O)Nc3ccc(F)cc32)c1C [sunitinib] + Cc1ccc(NC(=O)c2cccc(N(C)C)c2)cc1NC(=O)c1ccc(O)cc1 [ZM336372] (first compound 2 µM, partner dose 10 µM)",72.1%,25.6%,58.6%,43.8%,94.1%,46.8%,57.8%,102%,35.3%,59.2%
"CCN(CC)CCNC(=O)c1c(C)[nH]c(/C=C2\C(=O)Nc3ccc(F)cc32)c1C [sunitinib] + Cn1c(=O)n(-c2ccc(C(C)(C)C#N)cc2)c2c3cc(-c4cnc5ccccc5c4)ccc3ncc21 [NVP-BEZ235] (first compound 2 µM, partner dose 0.02 µM)",45.7%,78.4%,55.9%,28.8%,73.6%,43.5%,48.5%,73.8%,49.5%,59.3%
"C[C@]1(O)C[C@@H](c2nc(-c3ccc4ccc(-c5ccccc5)nc4c3)c3c(N)nccn32)C1 + CS(=O)(=O)c1ccc(C(=O)Nc2ccc(Cl)c(-c3ccccn3)c2)c(Cl)c1 [vismodegib] (first compound 2 µM, partner dose 5 µM)",89.3%,98.4%,110%,81.8%,113%,66.9%,127%,131%,69.4%,85.2%
"Cn1cnc2c(F)c(Nc3ccc(Br)cc3Cl)c(C(=O)NOCCO)cc21 [selumetinib] + CC(=O)c1c(C)c2cnc(Nc3ccc(N4CCNCC4)cn3)nc2n(C2CCCC2)c1=O [palbociclib] (first compound 0.075 µM, partner dose 0.2 µM)",33.1%,32.2%,43.6%,49.3%,76%,46.2%,41.3%,34.3%,64.2%,37.5%
"COc1cc([C@@H]2c3cc4c(cc3[C@@H](O[C@@H]3O[C@@H]5CO[C@@H](C)O[C@H]5[C@H](O)[C@H]3O)[C@H]3COC(=O)[C@H]23)OCO4)cc(OC)c1O [etoposide] + CO[C@H]1C[C@@H]2CC[C@@H](C)[C@@](O)(O2)C(=O)C(=O)N2CCCC[C@H]2C(=O)O[C@H]([C@H](C)C[C@@H]2CC[C@@H](OCCO)[C@H](OC)C2)CC(=O)[C@H](C)/C=C(\C)[C@@H](O)[C@@H](OC)C(=O)[C@H](C)C[C@H](C)/C=C/C=C/C=C/1C [everolimus] (first compound 0.1 µM, partner dose 0.1 µM)",40%,74.2%,66.7%,59.1%,72.4%,59.7%,69.1%,53.8%,82.3%,72.1%
"COc1cc([C@@H]2c3cc4c(cc3[C@@H](O[C@@H]3O[C@@H]5CO[C@@H](C)O[C@H]5[C@H](O)[C@H]3O)[C@H]3COC(=O)[C@H]23)OCO4)cc(OC)c1O [etoposide] + Nc1ccn([C@@H]2O[C@H](CO)[C@@H](O)C2(F)F)c(=O)n1 [gemcitabine] (first compound 0.1 µM, partner dose 0.002 µM)",87.5%,69.8%,89.4%,71.7%,90.4%,75.2%,61.1%,50.4%,40.9%,77.9%
"CCN(CC)CCNC(=O)c1c(C)[nH]c(/C=C2\C(=O)Nc3ccc(F)cc32)c1C [sunitinib] + C#Cc1cccc(Nc2ncnc3cc(OCCOC)c(OCCOC)cc23)c1 [erlotinib] (first compound 2 µM, partner dose 4 µM)",43.4%,59.6%,58.4%,33.4%,79.1%,34.8%,56.7%,66.1%,36.2%,55.3%
"C[C@]1(O)C[C@@H](c2nc(-c3ccc4ccc(-c5ccccc5)nc4c3)c3c(N)nccn32)C1 + C#Cc1cccc(Nc2ncnc3cc(OCCOC)c(OCCOC)cc23)c1 [erlotinib] (first compound 2 µM, partner dose 4 µM)",78.9%,70.1%,63.9%,43.2%,90.3%,50.7%,79.9%,95.6%,36.8%,51.9%
"C[C@]1(O)C[C@@H](c2nc(-c3ccc4ccc(-c5ccccc5)nc4c3)c3c(N)nccn32)C1 + CO[C@@H]1[C@H](N(C)C(=O)c2ccccc2)C[C@H]2O[C@]1(C)n1c3ccccc3c3c4c(c5c6ccccc6n2c5c31)C(=O)NC4 [Midostaurin] (first compound 2 µM, partner dose 0.4 µM)",61.9%,45.8%,69.1%,43.1%,57.2%,52.2%,49.8%,46.4%,40.9%,57.5%
"CCN(CC)CCNC(=O)c1c(C)[nH]c(/C=C2\C(=O)Nc3ccc(F)cc32)c1C [sunitinib] + CCCS(=O)(=O)Nc1ccc(F)c(C(=O)c2c[nH]c3ncc(Cl)cc23)c1F [PLX4720] (first compound 2 µM, partner dose 0.4 µM)",27.1%,107%,86.4%,56.4%,83.6%,43.2%,47.7%,49.9%,62.4%,34.6%
"COc1cc([C@@H]2c3cc4c(cc3[C@@H](O[C@@H]3O[C@@H]5CO[C@@H](C)O[C@H]5[C@H](O)[C@H]3O)[C@H]3COC(=O)[C@H]23)OCO4)cc(OC)c1O [etoposide] + NCC(=O)Nc1ccc(-n2nc(C(F)(F)F)cc2-c2ccc3c(ccc4ccccc43)c2)cc1 [OSU03012] (first compound 0.1 µM, partner dose 5 µM)",18.2%,42.2%,54.2%,61.9%,90.9%,67.6%,79.5%,75.5%,80.9%,66.1%
"Cn1cnc2c(F)c(Nc3ccc(Br)cc3Cl)c(C(=O)NOCCO)cc21 [selumetinib] + Cn1nnc2c(C(N)=O)ncn2c1=O [temozolomide] (first compound 0.075 µM, partner dose 10 µM)",33.5%,41%,51%,82.4%,105%,43.1%,80.5%,55.8%,97.3%,50.2%
"CCN(CC)CCNC(=O)c1c(C)[nH]c(/C=C2\C(=O)Nc3ccc(F)cc32)c1C [sunitinib] + CN(c1ncccc1CNc1nc(Nc2ccc3c(c2)CC(=O)N3)ncc1C(F)(F)F)S(C)(=O)=O [PF562271] (first compound 2 µM, partner dose 0.4 µM)",34.1%,70.9%,80.1%,43.9%,85.3%,70.8%,55.1%,82.5%,25.6%,72.3%
"Cn1cnc2c(F)c(Nc3ccc(Br)cc3Cl)c(C(=O)NOCCO)cc21 [selumetinib] + CC(C)(C)c1cnc(CSc2cnc(NC(=O)C3CCNCC3)s2)o1 [SNS-032] (first compound 0.075 µM, partner dose 0.05 µM)",46.5%,31%,61.1%,64.6%,73.3%,50.4%,47.8%,73.7%,68.9%,49.2%
"C[C@]1(O)C[C@@H](c2nc(-c3ccc4ccc(-c5ccccc5)nc4c3)c3c(N)nccn32)C1 + Cn1c(=O)n(-c2ccc(C(C)(C)C#N)cc2)c2c3cc(-c4cnc5ccccc5c4)ccc3ncc21 [NVP-BEZ235] (first compound 2 µM, partner dose 0.02 µM)",35.4%,37.9%,46.8%,42.6%,78.5%,52.4%,68.6%,60.3%,55%,43.3%
